Laboratory results from the supplement of paper PMC10369915.
This is one part of the list. No stated cut-off is given here; in the data, active = 3.2 or more and inactive = the rest. Most of these values are background signal.

Tests used:
Experiment in all cases: enrichment score (SH2-bound / input frequency) (ratio); bacterial display of known human phosphotyrosine sites (pTyr-Var adds point mutants) read by sequencing; higher = stronger binding; tyrosines were phosphorylated by kinases first
Settings in all cases: peptide library: pTyr-Var
SHP2 C-SH2 domain E139D = target: SHP2 C-SH2 domain E139D
[1] = target: SHP2 C-SH2 domain wild-type
SHP2 N-SH2 domain L43F = target: SHP2 N-SH2 domain L43F
SHP2 N-SH2 domain T42A = target: SHP2 N-SH2 domain T42A
SHP2 N-SH2 domain T52S = target: SHP2 N-SH2 domain T52S
[2] = target: SHP2 N-SH2 domain wild-type
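Further: displayed peptides selected on beads carrying the immobilized SH2 domain, with library peptides lacking any tyrosine serving as negative controls.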

| Binder | enrichment score (SHP2 C-SH2 domain E139D) | enrichment score [1] | enrichment score (SHP2 N-SH2 domain L43F) | enrichment score (SHP2 N-SH2 domain T42A) | enrichment score (SHP2 N-SH2 domain T52S) | enrichment score [2] |
| --- | --- | --- | --- | --- | --- | --- |
| RQNRFYDAKVR [FKBP6_Y188] | inactive: 0.481 | inactive: 0.458 | inactive: 0.419 | inactive: 0.348 | inactive: 0.489 | inactive: 0.517 |
| SQDSAYHSGIQ [FLG_Y3940] | inactive: 0.377 | inactive: 0.446 | inactive: 0.433 | inactive: 0.472 | inactive: 0.544 | inactive: 0.508 |
| CQNRFYDAKVR [FKBP6_Y188_R183C] | inactive: 0.931 | inactive: 0.99 | inactive: 0.872 | inactive: 0.835 | inactive: 0.998 | inactive: 1.01 |
| YRVDCYKNFVA [FHL1_Y213_C209R] | inactive: 1.04 | inactive: 1.03 | inactive: 0.946 | inactive: 0.824 | inactive: 0.841 | inactive: 1.03 |
| SRGSSYSSIPK [FLNC_Y2625] | inactive: 0.466 | inactive: 0.367 | inactive: 0.432 | inactive: 0.474 | inactive: 0.448 | inactive: 0.471 |
| GPGLVYGVANK [FLNB_Y1833] | inactive: 0.84 | inactive: 1.17 | inactive: 0.923 | inactive: 0.723 | inactive: 1.01 | inactive: 1.15 |
| LAARFYNWVSF [FLT4_Y1231_YF] | inactive: 2.82 | inactive: 2.61 | inactive: 2.42 | inactive: 2.95 | inactive: 2.76 | inactive: 2.54 |
| YTGNTYRVGDT [FN1_Y106] | inactive: 0.712 | inactive: 0.681 | inactive: 0.663 | inactive: 0.536 | inactive: 0.623 | inactive: 0.717 |
| GEVLVYAEDPA [FLNA_Y319_V320A] | inactive: 0.455 | inactive: 0.709 | inactive: 0.474 | inactive: 0.816 | inactive: 0.859 | inactive: 0.645 |
| SLAARYFNWVS [FLT4_Y1230_YF] | inactive: 2.1 | inactive: 1.95 | inactive: 1.99 | inactive: 1.92 | inactive: 2.23 | inactive: 1.88 |
| TCFDKYTGSTF [FN1_Y101_N104S_YF] | inactive: 0.581 | inactive: 0.678 | inactive: 0.584 | inactive: 0.596 | inactive: 0.673 | inactive: 0.915 |
| FHNSEYGELSE [FLT4_Y1337_Y1333H] | inactive: 0.549 | inactive: 0.466 | inactive: 0.466 | inactive: 0.651 | inactive: 0.885 | inactive: 0.472 |
| GRVLGYGAFGK [FLT4_Y853] | inactive: 0.969 | inactive: 0.93 | inactive: 0.863 | inactive: 0.835 | inactive: 0.945 | inactive: 1.07 |
| NAGAFYALSTL [FLVCR2_Y325] | inactive: 0.887 | inactive: 0.725 | inactive: 0.711 | inactive: 0.752 | inactive: 0.779 | inactive: 0.777 |
| FYNSEYGELSE [FLT4_Y1337] | inactive: 0.751 | inactive: 0.677 | inactive: 0.702 | inactive: 0.857 | inactive: 0.773 | inactive: 1.11 |
| LAARFYNWVCF [FLT4_Y1231_S1235C_YF] | inactive: 2.22 | inactive: 2.22 | inactive: 2.08 | inactive: 2.24 | inactive: 2.17 | inactive: 2.05 |
| KPNMNYDKLSW [FLI1_Y332_R337W] | inactive: 0.918 | inactive: 0.924 | inactive: 2.43 | inactive: 2.58 | inactive: 2.7 | inactive: 0.932 |
| KFACSYTPVKA [FLNB_Y708_T703K_YF] | inactive: 0.906 | inactive: 1.21 | inactive: 0.898 | inactive: 2.55 | inactive: 0.786 | inactive: 0.812 |
| FFNSEYGELSE [FLT4_Y1337_YF] | inactive: 1.06 | inactive: 0.764 | inactive: 0.808 | inactive: 0.889 | inactive: 0.94 | inactive: 0.972 |

| Binder | enrichment score (SHP2 C-SH2 domain E139D) | enrichment score [1] | enrichment score (SHP2 N-SH2 domain L43F) | enrichment score (SHP2 N-SH2 domain T42A) | enrichment score (SHP2 N-SH2 domain T52S) | enrichment score [2] |
| --- | --- | --- | --- | --- | --- | --- |
| APQYTYAQGGQ [FLNA_Y1763] | inactive: 0.558 | inactive: 0.813 | inactive: 0.493 | inactive: 0.472 | inactive: 0.505 | inactive: 0.62 |
| GTYVIYVRFSG [FLNB_Y1687_G1691S] | inactive: 0.903 | inactive: 0.896 | inactive: 0.875 | inactive: 0.894 | inactive: 0.866 | inactive: 0.92 |
| GGQVFYNSEYG [FLT4_Y1333] | inactive: 1.3 | inactive: 0.909 | inactive: 1.12 | inactive: 0.963 | inactive: 0.868 | inactive: 0.989 |
| PGLSSYGVPAS [FLNB_Y1530] | inactive: 0.643 | inactive: 0.608 | inactive: 0.819 | inactive: 0.507 | inactive: 0.656 | inactive: 0.787 |
| ISNATYKQIGL [FLT1_Y199_E201Q] | inactive: 0.468 | inactive: 0.435 | inactive: 0.44 | inactive: 0.491 | inactive: 0.412 | inactive: 0.543 |
| KYACSYTPVKA [FLNB_Y708_T703K] | inactive: 1.2 | inactive: 2.11 | inactive: 1.39 | inactive: 3.06 | inactive: 1.75 | inactive: 1.2 |
| RMDGKYACSYT [FLNB_Y704_T703K] | inactive: 0.701 | inactive: 0.864 | inactive: 0.693 | inactive: 0.737 | inactive: 0.634 | inactive: 1.03 |
| CERLPYDANKW [FLT1_Y815_S818N] | inactive: 1.03 | inactive: 1.16 | inactive: 0.849 | inactive: 0.792 | inactive: 0.73 | inactive: 1.15 |
| VVDVTYDDVPI [FLNB_Y1308_E1305D] | inactive: 0.707 | inactive: 0.641 | inactive: 0.716 | inactive: 0.744 | inactive: 0.744 | inactive: 0.947 |
| VVEVTYDDVPI [FLNB_Y1308] | inactive: 0.822 | inactive: 0.726 | inactive: 0.765 | inactive: 0.68 | inactive: 0.86 | inactive: 1.21 |
| GTFVIYVRFSG [FLNB_Y1687_G1691S_YF] | inactive: 0.427 | inactive: 0.645 | inactive: 0.621 | inactive: 0.506 | inactive: 0.489 | inactive: 0.805 |
| FTGSTYRVGDT [FN1_Y106_N104S_YF] | inactive: 0.852 | inactive: 0.661 | inactive: 0.817 | inactive: 0.853 | inactive: 0.801 | inactive: 0.709 |
| TYACSYTPVKA [FLNB_Y708] | inactive: 1.11 | inactive: 1.85 | inactive: 1.11 | active: 3.27 | inactive: 1.21 | inactive: 0.76 |
| SPLEVYVDKSQ [FLNA_Y373_F370L] | inactive: 0.924 | inactive: 0.998 | inactive: 1 | inactive: 0.742 | inactive: 0.95 | inactive: 0.954 |
| IDQDKYAVRFI [FLNA_Y2388] | inactive: 0.823 | inactive: 0.668 | inactive: 0.715 | inactive: 0.722 | inactive: 0.777 | inactive: 0.73 |
| RMDGKYACSFT [FLNB_Y704_T703K_YF] | inactive: 0.709 | inactive: 0.993 | inactive: 0.841 | inactive: 0.755 | inactive: 0.803 | inactive: 0.889 |
| TYTVSYLPDMS [FLNC_Y1602] | inactive: 0.966 | inactive: 1.11 | inactive: 1.03 | inactive: 1.17 | inactive: 0.929 | inactive: 0.9 |
| TFTVSYLPDMS [FLNC_Y1602_YF] | inactive: 1.3 | inactive: 1.03 | inactive: 1.25 | inactive: 1.13 | inactive: 1.14 | inactive: 1.07 |
